Among all 310,000 compounds or so, about 14,000 (4.5%) showed an effect of 50% or more. Effects have a minus sign here. The list shows a part of the results.
target: human ether-à-go-go-related gene (hERG) potassium channel (human, UniProt Q12809); test: primary screen, population patch clamp on CHO cells stably expressing hERG
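Note: peak tail current of the secondary pulse compared with the same well before compound.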

Chain of human ether-à-go-go-related gene (hERG) potassium channel (Q12809 whole entry, looked up): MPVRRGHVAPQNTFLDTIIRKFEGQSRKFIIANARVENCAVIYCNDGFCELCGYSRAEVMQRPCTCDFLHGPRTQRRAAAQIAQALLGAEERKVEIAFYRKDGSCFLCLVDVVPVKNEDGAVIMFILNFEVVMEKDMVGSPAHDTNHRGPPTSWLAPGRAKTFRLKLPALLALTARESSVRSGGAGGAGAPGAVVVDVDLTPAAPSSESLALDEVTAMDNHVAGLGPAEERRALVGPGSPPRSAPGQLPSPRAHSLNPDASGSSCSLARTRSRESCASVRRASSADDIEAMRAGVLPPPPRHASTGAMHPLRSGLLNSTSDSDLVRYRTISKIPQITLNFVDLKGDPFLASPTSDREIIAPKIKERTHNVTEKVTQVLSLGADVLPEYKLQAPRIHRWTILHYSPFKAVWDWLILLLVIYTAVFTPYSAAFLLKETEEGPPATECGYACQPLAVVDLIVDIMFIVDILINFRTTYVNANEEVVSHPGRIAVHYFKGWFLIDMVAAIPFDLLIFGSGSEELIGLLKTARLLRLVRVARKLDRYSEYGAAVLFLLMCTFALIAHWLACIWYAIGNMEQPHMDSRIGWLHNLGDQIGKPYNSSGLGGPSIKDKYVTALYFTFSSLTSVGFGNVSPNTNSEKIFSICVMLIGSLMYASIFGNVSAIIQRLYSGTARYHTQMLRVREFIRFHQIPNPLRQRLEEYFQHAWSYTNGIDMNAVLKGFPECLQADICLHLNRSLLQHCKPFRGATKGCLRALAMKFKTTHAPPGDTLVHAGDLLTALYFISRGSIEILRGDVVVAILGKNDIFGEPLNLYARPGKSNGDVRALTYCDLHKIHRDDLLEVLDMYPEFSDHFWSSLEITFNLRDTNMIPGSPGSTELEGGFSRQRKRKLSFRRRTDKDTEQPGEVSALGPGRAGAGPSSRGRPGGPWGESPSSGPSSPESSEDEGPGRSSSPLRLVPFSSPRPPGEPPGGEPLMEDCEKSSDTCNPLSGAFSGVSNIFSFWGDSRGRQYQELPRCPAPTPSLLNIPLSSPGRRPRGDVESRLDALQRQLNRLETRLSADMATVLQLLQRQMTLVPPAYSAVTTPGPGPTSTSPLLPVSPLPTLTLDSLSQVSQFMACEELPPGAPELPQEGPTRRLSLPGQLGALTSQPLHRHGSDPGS

Compound | hERG current change (%, negative = inhibition) at 10uM
COC(C(=O)Nc1ccnn1C1CCN(Cc2cnn(C(C)C)c2)CC1)c1ccccc1 (stereo not shown) | -2.06%
CCOc1ccccc1NC(=O)C(=O)/C=C(\O)c1cc(OC)ccc1OC | 26.1%
COc1ccc(C(=O)NC2CCc3ccccc32)cc1OC1CCN(C(C)C)CC1 (stereo not shown) | -17.6%
O=C(c1cccn2c(=O)c3ccccc3nc12)N1CCN(Cc2ccc3c(c2)OCO3)CC1 | -67.7%
Cc1ccc(/C=N/NC(=O)CN2CCN(Cc3ccccc3)CC2)s1 | -55.8%
COc1ccc(-c2csc(N)n2)cc1 | -6.71%
Cc1nc(NC(=O)CSc2nnc3ccccn23)c(Cl)cc1Cl | -3.58%
O=C(NCC1CCCO1)c1cnc(Cl)c(Cl)c1 (stereo not shown) | 13.9%
CC(C)OCCCNC(=O)CNC(=O)c1cccs1 | 4.99%
Cc1ccccc1CC1(CO)CCCN(C(=O)c2ccc3ncccc3c2)C1 (stereo not shown) | -7.32%
O=[N+]([O-])c1ccc(Cl)c(CN2CCN(c3ncccn3)CC2)c1 | -5.2%
NS(=O)(=O)c1ccc(NC(=O)COC(=O)CNC(=O)C23CC4CC(CC(C4)C2)C3)cc1 | 4.95%
CCN1C(=O)CC(N2CCC(Nc3ccc(F)cc3)CC2)C1=O (stereo not shown) | 2.76%
NS(=O)(=O)c1ccc(NCc2ccccc2OCc2ccc(F)cc2)cc1 | -17%
Cc1cnc(C(=O)Nc2ccc(C)c(S(=O)(=O)N3CCCCC3)c2)cn1 | 5.03%
Cc1ccc(C)c(NC(=O)C2CCCN2C(=O)OC(C)(C)C)c1 (stereo not shown) | 1.04%
c1ccc(-c2ccc3sccc3n2)cc1 | 5.69%
Cc1ccc(NC(=O)C(C)OC(=O)Cc2c[nH]c3ccccc23)cc1 (stereo not shown) | 2.1%
Cc1ccc(N2C(=O)NC(=O)/C(=C/C=C/c3ccco3)C2=O)cc1 | 14.6%
COc1cc2c(cc1OC)C1=C(C#N)CC/C(=N\S(=O)(=O)c3cccc(Cl)c3)N1CC2 | -23.3%
O=c1cc(CN2CCN(Cc3ccccc3)CC2)c2ccc(O)c(O)c2o1 | -65.8%
CC(C)n1nnnc1SCC(=O)N1CCN(Cc2ccc3c(c2)OCCO3)CC1 | -9.13%
O=c1[nH]c(=S)n(C2CC2)c(O)c1C=NCCc1ccccc1 | 7.26%
COCCn1nnnc1CN(Cc1ccco1)Cc1cc2cc3c(cc2[nH]c1=O)OCO3 | -10.1%
Cc1ccc(S(=O)(=O)c2c(N)n(Cc3ccco3)c3nc4ccccc4nc23)cc1C | -9.7%
CC(C)(C)NC(=O)[C@@H]1C[C@@H]2CCCC[C@@H]2CN1C[C@@H](O)[C@H](Cc1ccccc1)NC(=O)[C@H](CC(N)=O)NC(=O)c1ccc2ccccc2n1.CS(=O)(=O)O | -72.1%
O=C(Nc1ccc(N2CCOCC2)c(S(=O)(=O)Nc2cc(Cl)ccc2Cl)c1)c1cccnc1 | -0.224%
Cc1nc2ccccc2c2oc(C(=O)N3CCC(C)CC3)cc12 | -30.5%

Compound | hERG current change (%, negative = inhibition) at 10uM
CCN(CC)S(=O)(=O)c1cc(OC)ccc1N=Nc1ccc(O)c2ncccc12 | 12.2%
COC(=O)Cn1cc(C(=O)c2ccccc2F)c2ccccc21 | -1.29%
Cc1[nH]nc(SCC(=O)N2CCCC2)c1[N+](=O)[O-] | 13%
Cc1cc(C)nc(Sc2ccc(/C=C(\C#N)C(N)=O)o2)n1 | -17.6%
O=C(NC(=S)Nc1ccccc1Cl)c1ccco1 | 15.5%
COc1ccc(N=C(c2ccccc2)c2c(C)[nH]n(-c3ccccc3)c2=O)c(OC)c1 | 5.99%
NNC(=O)CSc1nc(-c2ccccc2)cn1-c1ccccc1 | -0.037%
CCc1ccc(NC(=O)Cn2cccc2)cc1 | -1.8%
COc1cc2c(cc1OC)C(C(=O)N1CCN(c3ccccc3)CC1)C(c1cccs1)N(C)C2=O (stereo not shown) | -68.1%
COc1cc2c(cc1/C=C1/NC(=O)N(CC(=O)Nc3ccccc3)C1=O)OCO2 | 9.51%
COc1cc(NC(=O)Cc2ccccc2)nc(OC)n1 | 16.7%
Cc1cccc2cc(CN(Cc3cccs3)C(=S)NCC3CCCO3)c(=O)[nH]c12 (stereo not shown) | -2.34%
O=C(Nc1ccccc1N1CCCCC1)c1ccco1 | -1.72%
Cn1cnc([N+](=O)[O-])c1Sc1ccc(C(C)(C)C)cc1 | -37.2%
COc1ccc2cnnc(SCC(=O)Nc3ccc(C(=O)O)cc3)c2c1OC | -3.39%
Cc1cccc(N2CCN(C(=O)c3ccccc3NC(=O)C3CC=CCC3C(=O)O)CC2)c1 (stereo not shown) | 9.75%
COC(=O)c1ccc(NC(=S)N2CCN(Cc3ccccc3OC)CC2)cc1 | -3.25%
Cc1cccc(Nc2nc(NCc3ccco3)nc(N3CCOCC3)n2)c1 | -31.2%
COc1ccccc1NC(=O)N1CCc2[nH]c3ccc(Cl)cc3c2C1 | 1.59%
Cc1cc(C)c(S(=O)(=O)N2CCCOC2CNC(=O)C(=O)NCCC2=CCCCC2)c(C)c1 (stereo not shown) | -0.914%
FC(F)(F)C1=NC(C(F)(F)F)=NP(N2CCOCC2)(N2CCOCC2)=N1 | 9.42%
Cc1c(C(=O)NNC(=O)c2csc(N3CCOCC3)n2)oc2ccccc12 | -38.7%
O=C(O)c1cncc(SCc2ccccc2)n1 | 8.07%
O=C(C1COc2ccccc2O1)N1CCc2ccccc21 (stereo not shown) | -5.51%
O=C(/C(=C(\[O-])c1ccccc1)[n+]1ccc2ccccc2c1)c1ccccc1 | -17.2%
COc1ccc(-c2cc3ccccc3nc2N)cc1OC | -7.35%
Cc1ccc(OCC(=O)N2CCC(Cc3ccccc3)CC2)c([N+](=O)[O-])n1 | -67.7%

From article PMC4336329 (PLoS ONE, 2015)
